The record followed here is the RNAGym collection of RNA variant scans (doi:10.7554/elife.90254).

Read counts are not given, so values of variants with three or more changes are uncertain.

The chains are these.
B1: LINE1-full (parent)
chain: UACGUAGGUGGUUUUCCCCUGAUAGUGCUAAGGGGGCCUGGAAGUUUGGACUGGGCAGAGCUCAACACAGCGUGGCAAAGUGGCUGUGGCUAGACUGCCUCUCUGGAUUCCUCGUCACUCAGCAGGGCAUCUCUGAGAGAAAUGCC

The variants in the series derive from B1. In words: self-cleavage, relative activity (ratio to wild type); higher = more cleavage; in vitro, sequencing; the parent is a self-cleaving ribozyme.
As to CACGUGGGUGGUUUUCCCCUGAUAGUGCUAAGGGGGCCUGGAAGUUUGGACUGGGCAGAGCUCAACACAGCGUGGCAAAGUGGCUGUGGCUGGACUGCCUCUCUGGAUUCCUCGUCACUCAGCAGGGCAUCUCUGAGAGAAAUGCC [U1C A6G A92G], the self-cleavage is 0.16.
With CACGUAGGUGGUUUUCCCCUGAUAGUGCUAAGGGGGCCUGGAGGUUUGGACUGGGCGGAGCUCAACACAGCGUGGCUAAGUGGCUGUGGCUAGACUGCCUCUCUGGAUUCCUCGACACUCAGCAGGGCAUCUCUGAGAGAAAUGCC [U1C A43G A57G A77U U115A], the self-cleavage amounted to 0.63.
For the variant AACGUAGGUGGUUUUCCCCUGAUAGUGCUAAGGGGGCCUGGAAGUUUGGACUGGGCAGAGCUCAACACAGCGUGGCAAAGUGGCUGUGGCAAGACUGCCUCUCUGGAUUCCUCGUCGCUCAGCAGGGCAUCUCUGAGAGAAAUGCC [U1A U91A A117G], the self-cleavage came to 0.26.
As for AACGUAGGUGGUUUUCCCCUGAUAGUGCUAAGGGGGCCUGGAAGUUUGGACUGGGCAGAGCUCAACACAGCGUGGCAAAGUGGCUGUGGCUAGACUGCCUCUCUGGAUUCCUCGUCACUCAGCAGGGCAUCCCAGAGAGAAAUGCC [U1A U132C U134A], the self-cleavage amounted to 0.41.
As to CACGUAGGUGGUUUUCCCCUGAUAGUGCUAAGGGGGCCUGGAAGUUUGGGCUGGGCAGAGCUCAACACAGCGUGGCGAAGUGGCUGUGGCUAGACUGCCUCUCUGGAUUCCUCGUCACUCAGCAGGGCAUCUCCGAGAGAAAUGCC [U1C A50G A77G U134C], the self-cleavage turned out to be 0.97.
As to CACGUUGGUGGUUUUCCCCUGAUAGUGCUAAGGGGGCCUGGAAGUUUGGACUGGGCAGAGCUCAACACAGCGUGGCAAAGUGGCUGUGGCUAGACUGCCUCUCUGGAUUCCUCGCCACUCAGCAGGGCAUCUCUGAGAGAAAUGCC [U1C A6U U115C], the self-cleavage came out at 1.72.
On to AACGUAGGUGGUUUUCCCCUGAUAGUGCUAAGGGGGCCUGGAAGUCUGGACUGGGCAGAGCUCAACACAGCGUGGCAAAGUGGCUGUGGCUAGACCGCCUCUCUGGAUUCCUCGUCACUCAGCAGGGCAUCUCUGAGAGAAAUGCC [U1A U46C U96C], for which the self-cleavage worked out at 0.42.
Regarding CACGUAGGUGGUUUUCCCCUGAUAGUGCUAAGGGGGCCUGGAAGUUUGGGCUGGGCAGAGCUCAACACAGCGUGGCAAAGUGGCUGUGGCUAGGCUGCCUCUCUGGAUUCCUCGUCACUCAGCAGGGCAUCUCUGAGAGAAAUGCC [U1C A50G A94G], the self-cleavage amounted to 0.
As to CACGUAGGUGGUUUUCCCCUGAUAGUGCUAAGGGGGCCUGGGAGUUUGGACUGGGCAGGGCUCAACACAGCGUGGCAAAGUGGCUGUGGCUAGACUGCCUCUCCGGAUUCCUCGUCACUCAGCAGGGCAUCUCUGAGAGAAAUGCC [U1C A42G A59G U104C], the self-cleavage was found to be 0.
The same measure for AACGUAGGUGGUUUUCCCCUGAUAGUGCUAAGGGGGCCUGGAAGCUUGGACUGGGCAGAGCUCAACACAGCGUGGCAAAGUGGCUGUGGCUAGACUGCCUCUCUGGAUUCCUCGUCACUCUGCAGGGCAUCUCUGAGAGAAAAGCC [U1A U45C A121U U143A]: 1.53.
Consider CGCGUAGGUGGUUUUCCCCUGAUAGUGCUAAGGGGGCCUGGAAGUUUGGACUGGGCAGAGCUCAACACAGCGUGGCAAAGUGGCUGUGGCUAGACUGCCACUCUGGAUUCCUCGUCACUCAGCAGGGCAUCUCUGAGAGAAAUGCC [U1C A2G U100A], for which the self-cleavage was determined as 0.3.
The same measure for CGCGUAGGUGGUUUUCCCCUGAUAGUGCUAAGGGGGCCUGGAAGUUUGGACGGGGCAGAGCUCAACACAGCGUGGCAAAGUGGCUGUGGCUAGACUGCCUCUCUGGAUUCCUCGUCACUCAGCAGGGCAUCUCUGAGAGAAAUGCC [U1C A2G U52G]: 0.82; for CACGUAGGUGGUUUUCCCCUGAUGGUGCUAAGGGGGCCUUGAAGUUUGGACUGGCCAGAGCUCAACACAGCAUGGCAUAGUGGCUGUGGCUAGACUGCCUCUCUGGAUUCCUCGUCACUCAGCAGGGCAUCUCUGAGAGAAAUGCC [U1C A24G G40U G55C G72A A78U]: 0.
Take CACGUAGGUGGUUUUCCCCUGAUAGUGCUAGGGGGGCCUGGAAGAUUGGACUGGGCAGAGCUCAACACAGCGUGGCAAAGUGGCUGUGGCUAGGCUGCCUCUCUGGAUUCCUCGUCACUCAGCAGGGCAUCUCUGAGAGAAAUGCC [U1C A31G U45A A94G]: the self-cleavage was 0.
The same measure for CACGUAGGUGGUUUUCCCCUGAUAGUGCUCAGGUGGCCUGGAAGUUUGGACUGGGCAGAGCUCAACUCAGCGUGGCAAAGUGGCUGUGGCUAGACUGCCUCUCUGGAUUCCUCGUCACUCAGCAGGGCAUCUCUGAGAGAAAUGCC [U1C A30C G34U A67U]: 0.14; for CACGUUGGUGGUUUUCCCCUGAUAGUGCUAAGGGGGCCUGGAAGUUUGGACUGGGCAGAGCUCUACACAGCGUGGCAAAGUGGCUGUGGCUAGACUGCCUCUCUGGAUUCCUCGUCACUCAGCAGGGCAUCUCUGAGAGAAAUGCC [U1C A6U A64U]: 0.41.
For the variant CACGUAGGUGGUUUUCCCCUGAUAGUGCUAAGGGGGCCUGGAGGUUUGGACUGGGCAGAGCUCAACACAGCGUGGCAAAGAGGCUGUGGCUAGACUGCCUCUCUGGAUUCCUCGUCACUCAGCAGGGCAUCUCUGAGAGAAAUGCC [U1C A43G U81A], the self-cleavage was determined as 1.09.
Regarding CGCGUAGGUGGUUUUCCCCUGAUAGUGCUAAGGGGGCCUGGGAGUUUGGACUGGGCAGAGCUCGACACAGCGUGGCGAAGUGGCUGUGGCAAGACUGCCUCUCUGGAUUCCUCGUCACUCAGCAGGGCAUCUCUGAGAGAAAUGCC [U1C A2G A42G A64G A77G U91A], the self-cleavage turned out to be 0.
The value for CACGUAGGUGGUUUUCCCCUGAUAGUGCUAAGGGGGCCUGGGAGUUUGGACCGGGCAGAGCUCAACACAGCGUGGCAAAGUGGCUGUGGCUAGACUGCCUCUCUGGAUUCCUCGUCACUCAGCAGGGCAUCUCUGAGAGAAAUGCC [U1C A42G U52C] was 0.57.
The value for AACGUAGGUGGUUUUCCCCUGAUAGUGCUAAGGGGGCCUGGAAGUUUGGACUGGGCAGAGCUCAACACAGCGUGGCAAAGUGGCUGUGGCUAGACUGCCCCUCUGGAUUCCUCGUCACUCAGCAGGGCAUCUCUGAGAGAAAUGUC [U1A U100C C145U] was 1.69; that for AACGUAGGUGGUUUUCCCCUGAUAGUGCUAAGGGGGCCUGGAAGUUUGGACUGGGCAGAGCUCAACACAGCGUGGCAAAGUGGCUGUGGCUAGACUGCCUCUCUGGAUUCCUCGUCACCCAGCAGGGCAUCUCUGAGAGAAACGCC [U1A U119C U143C] was 1.81; that for AACGUAGGUGGUUUUCCCCUGAUAGUGCUAAGGGGGCCCGGAAGUUUGGACUGGGCAGAGCUCAACACAGCGUGGCAAAGUGGCUGUGGCAAGACUGCCUCUCUGGAUUCCUCGUCACUCAGCAGGGCAUCUCUGAGAGAAAUGCC [U1A U39C U91A] was 1.13.
The value for AACGUAGGUGGUUUUCCCCUGAUAGUGCUAAGGGGGCCUGGAAGUUUGGACUGGGCAGAGCUCAACACAGCGUGGCAAAGUGGCUGUGGCUAGACUGCCUCUCUGGAUUCCUCGCCACUCAGCAGGGCAUCUCUGGGAGAAAUGCC [U1A U115C A136G] was 1.69; that for CUCGUAGGUGGUUUUCCCCUGAUAGUGCUAAGGGGGCCUGGAAGUUUGGACUGGGCAGAGCUCAACACAGCGUGGCAAAGUGGCUGUGGCUAGACUGCCUCUCUGGAUUCCUCGUCUCUCAGCAGGGCAUCUCUGAGGGAAAUGCC [U1C A2U A117U A138G] was 1.46; that for CACGUGGGUGGUUUUCCCCUGAUAGUGCUAAGGGGGCCUGGAAGUUUGGACCGGGCAGAGCUCAAUACAGCGUGGCAAAGUGGCUGUGGCUAGACUGCCUCUCUGGAUUCCUCGUCACUCAGCAGGGCAUCUCUGAGGGAAAUGCC [U1C A6G U52C C66U A138G] was 0.11.
AACGUAGGUGGUUUUCCCCUGAUAGUGCUAAGGGGGCCUGGAAGUUUGGACUGGGCAGAGCUCAACACAGCGCGGCAAAGUGGCUGUGGCUUGACUGCCUCUCUGGAUUCCUCGUCACUCAGCAGGGCAUCUCUGAGAGAAAUGCC [U1A U73C A92U]: the self-cleavage came out at 0.79.
AACGUAGGUGGUUUUCCCCUGAUAGUGCUAAGGGGGCCUGGAAGUUUGGACUGGGCAGAGCUCAACACAGCGUGGCAAAGAGGCUGUGGCUAGACUGCCUCUCUGGAUUCCUUGUCACUCAGCAGGGCAUCUCUGAGAGAAAUGCC [U1A U81A C113U]: the self-cleavage is 1.39.
The same measure for AACGUAGGUGGUUUUCCCCUGAUAGUGCUAAGGGGGCCUGGAAGUUUGGACUGGGCAGAGCUCAACACAGCGUGGCAAAGCGGCUGUGGCUAGACUGCCUCUCUGGAUUCCUCGUCACUCAGCAGGGCAUCACUGAGAGAAAUGCC [U1A U81C U132A]: 1.46; for AACGUAGGUGGUUUUCCCCUGAUAGUGCUAAGGGGGCCUGGAAGUUUGGACUGGGCAGAGCUCAACACAGCGCGGCAAAGUGGCUGGGGCUAGACUGCCUCUCUGGAUUCCUCGUCACUCAGCAGGGCAUCUCUGAGAGAAAUGCC [U1A U73C U87G]: 0.66; for CACGUAGGUGGUUUUCCCCUGUUAGUGCUAAGGGGGCCUGGAAGUUUGGACUGGGCAGAGCUCAACACAGCGUGGCAGAGUGGCUGUGGCUAGACUGCCUCUCUUGAUUCCUCGUCACUCAGCAGGGCAUCUCUGAGAGAAAUGCC [U1C A22U A78G G105U]: 1.18.
The value for CACGUGGGUGGUCUUCCCCUGAUAGCGCUAAGGGGGCCUGGAAGUUUGGACUGGGCAGAGCUCAACACAGCGUGGCAAAGUGGCUGUGGCUAGACUGCCUCUCUGGAUUCCUCGUCACUCAGCAGGGCAUCUCUAAGAGAAAUGCC [U1C A6G U13C U26C G135A] was 1.23.
Consider CACGUAGGUGGUUUUCCCCUGGUAGUGCUAAGGGGGCCUGGAAGUUUGGACUGGGCAGAGCUCAACACAGCGUGGCAAUGUGGCUGUGGCCAGACUGCCUCUCUGGAUUCCUCGUCACUCAGCAGGGCAUCUCUGAGAGAAAUACC [U1C A22G A79U U91C G144A], for which the self-cleavage was determined as 1.02.
The same measure for CGCGUAGGUGGUUUUCCCCAGAUAGUGCUAAAGUGGCCUGGAAGUUUGGACUGGGCAGAGCUCAACACAGCGUGGCAAAGUGGCUGUGGCUAGACUGCCACUCUGGAUUCCUCGUCGCUCAGCAGGGCAUCUCUGAGGGAAAUGCC [U1C A2G U20A G32A G34U U100A A117G A138G]: 0; for CACGUAGGUGGUUUUCCCCUGAUAGUGCUAAGGGGGCCUGGUAGUUUGGACUGGGCAGAGCUCAACACAGCGUGGCAAAGUGGCUGUGGCUAGACUGCCUCUCUGGAUUCCUCGCCACUCAGCAGGGCAUCUCUGAGAGAAAUGCC [U1C A42U U115C]: 0.37; for CACGUAGGUGGUUUUCCCCUGAUAGUGCUAAGGGGGCCUGGAGGUUUGGACUGGGCAGAGCUCAACACAGCGUGGCAAAGUGGCUGUGGCUAGACUGCCUCUCUGGAUUCCUCGUCACUCAGCAGGGCAUCUCUGAGUGAAAUGCC [U1C A43G A138U]: 0.72.
The same measure for CACGUAGGUGGUUUUCCCCUGAUAGUGCUAAGGGGGCCUGGAAGUUUGGGCUGGGCAGAGCUCAUCGCAGCGUGGCAAAGUGGCUGUGGCUAGACUGCCUCUCUGGAUUCCUCGUCACUCAGCAGGGCAUCUCUGAGAGAAAUGCC [U1C A50G A65U A67G]: 0; for AACGUAGGUGGUUUUCCCCUGAUAGUGCUAAGGGGGCCUGGAAGUUUGGACUGGGCAGAGCUCAACACAGCGUGGCAAAGUGGCUGUGGCUAGACCGCCUCUCUGGAUUCCCCGUCACUCAGCAGGGCAUCUCUGAGAGAAAUGCC [U1A U96C U112C]: 0.27; for AACGUAGGUGGUUUUCCCCUGAUAGUGCUAAGGGGGCCUGGAAGUUUGGACAGGCCAGAGCUCAACACAGCGUGGCAAAGUGGCUGUGGCCAGACUGCCUCUCUGGAUUCCUCGUCACUCAGCAGGGCAUCUCUGAGAGAAAUGCC [U1A U52A G55C U91C]: 0.23.
The value for AACGUAGGUGGUUUUCCCCUGAUAGUGCUAAGGGGGCCUGGAAGUUUGGACUGGGCAGAGCUCAACACAGCGUGGCAAAGUGGCUGCGGCUAUACUGCCUCUCUGGAUUCCUCGUCGCACAGCAGGGCAUCUCUGAGAGAAAUGCC [U1A U87C G93U A117G U119A] was 0.3.
